{"source": "the supplement of paper PMC3334620", "note": "In all, about 33,000 sequences were measured (“E-score (-0.5 to 0.5)”: median about -0.01, highest 2% from about 0.26 on). The list shows a part of the results.", "data": [{"biological_target": "Ste12 (UniProt P13574)", "test": "PBM E-score (8-mer binding enrichment) (E-score (-0.5 to 0.5)); higher = stronger / more preferred TF binding; most listed sequences are background and not binding sites", "settings": "protein concentration: 200 nM; construct: GST-DNA-binding domain", "procedure,_shortened": "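Yeast transcription factors, full-length or as DNA-binding domains, were expressed with a GST tag using PURExpress in vitro transcription/translation. At about 100-200 nM they were applied to universal all-10-mer Agilent arrays, double-stranded by primer extension on fresh or once-stripped slides. Fluorescent anti-GST detected bound protein, and masliner normalised the scans. E-scores for ungapped eight-base words, pooled with reverse complements, came from the Universal PBM Analysis Suite.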", "values": [{"sequence": "ACTCCTTC", "PBM E-score": -0.154}, {"sequence": "CGGCTTTC", "PBM E-score": -0.0465}, {"sequence": "AGCTAGAG", "PBM E-score": -0.136}, {"sequence": "ACCCCTCT", "PBM E-score": -0.0156}, {"sequence": "ACGGATTG", "PBM E-score": -0.115}, {"sequence": "GATGCTGC", "PBM E-score": -0.322}, {"sequence": "AAAGGGTG", "PBM E-score": -0.00052}, {"sequence": "CCTACCGA", "PBM E-score": -0.146}, {"sequence": "CGGGTCGA", "PBM E-score": -0.0237}, {"sequence": "ACATGTGC", "PBM E-score": -0.0339}, {"sequence": "GGGGTTGA", "PBM E-score": -0.015}, {"sequence": "GATAAACC", "PBM E-score": 0.0557}, {"sequence": "GACCTCTC", "PBM E-score": -0.00492}, {"sequence": "CTCGGAAG", "PBM E-score": -0.0488}, {"sequence": "AACTACCG", "PBM E-score": -0.0753}, {"sequence": "CTAGAGAC", "PBM E-score": -0.195}, {"sequence": "AACATCGT", "PBM E-score": 0.0998}, {"sequence": "CGTTGGCA", "PBM E-score": 0.0575}, {"sequence": "CACTGAAC", "PBM E-score": 0.0627}, {"sequence": "ACGCGGTC", "PBM E-score": -0.145}, {"sequence": "ATCCCTAG", "PBM E-score": -0.145}, {"sequence": "ACCACCTA", "PBM E-score": 0.0154}, {"sequence": "AAAGGTAG", "PBM E-score": -0.114}, {"sequence": "CTGCCCCC", "PBM E-score": -0.257}, {"sequence": "CTGACGCC", "PBM E-score": 0.0592}, {"sequence": "ACTCATAA", "PBM E-score": -0.0536}, {"sequence": "CTCTAAAG", "PBM E-score": -0.0956}, {"sequence": "AGCTCATG", "PBM E-score": -0.187}, {"sequence": "ACGCAACC", "PBM E-score": 0.148}, {"sequence": "CGGAGTCC", "PBM E-score": -0.00193}, {"sequence": "CGCGGCTA", "PBM E-score": 0.00151}, {"sequence": "AAGGGCAC", "PBM E-score": -0.0647}, {"sequence": "GCATTGCA", "PBM E-score": 0.0622}, {"sequence": "ATACTGAC", "PBM E-score": 0.0347}, {"sequence": "TCGAACGA", "PBM E-score": 0.0875}, {"sequence": "GAGGTATC", "PBM E-score": 0.00329}, {"sequence": "CATAAATA", "PBM E-score": 0.268}, {"sequence": "CGGTGTAC", "PBM E-score": 0.029}, {"sequence": "CTGAAAAC", "PBM E-score": 0.0248}, {"sequence": "CCAAATAG", "PBM E-score": 0.0193}, {"sequence": "ATGCCCTA", "PBM E-score": -0.157}, {"sequence": "CCTCTTCG", "PBM E-score": -0.104}, {"sequence": "CTTGCCTC", "PBM E-score": 0.0771}, {"sequence": "CCCACGAG", "PBM E-score": -0.23}, {"sequence": "ACGTGGAG", "PBM E-score": -0.147}, {"sequence": "AGACTGTC", "PBM E-score": -0.141}, {"sequence": "CCGGCTAC", "PBM E-score": 0.0776}, {"sequence": "CCACTAGA", "PBM E-score": -0.152}, {"sequence": "GCGATGGA", "PBM E-score": -0.113}, {"sequence": "AGTATATA", "PBM E-score": 0.295}, {"sequence": "CGCCCCAC", "PBM E-score": 0.272}, {"sequence": "AGCTTGCC", "PBM E-score": -0.158}, {"sequence": "AGGACTCC", "PBM E-score": -0.253}, {"sequence": "AACGAGCC", "PBM E-score": 0.0134}, {"sequence": "CATACCTC", "PBM E-score": -0.064}, {"sequence": "AGCGTTCA", "PBM E-score": -0.19}, {"sequence": "GGCAAACC", "PBM E-score": -0.193}, {"sequence": "TAACCTCA", "PBM E-score": -0.072}, {"sequence": "AAATCTGA", "PBM E-score": 0.266}, {"sequence": "AGCTATGA", "PBM E-score": -0.0667}, {"sequence": "CATCGGAC", "PBM E-score": -0.209}, {"sequence": "GCGGTGAA", "PBM E-score": 0.119}, {"sequence": "CCTGGGCA", "PBM E-score": -0.208}, {"sequence": "ATTAAGCG", "PBM E-score": 0.175}, {"sequence": "ACGTCTAT", "PBM E-score": 0.0773}, {"sequence": "CGTCCGGA", "PBM E-score": -0.0698}, {"sequence": "CACGTATA", "PBM E-score": 0.0207}, {"sequence": "ACCATCCA", "PBM E-score": -0.198}, {"sequence": "CCATCAAG", "PBM E-score": -0.16}, {"sequence": "CCCCATGA", "PBM E-score": 0.0199}, {"sequence": "GGACTCCA", "PBM E-score": -0.141}, {"sequence": "AGAAAACG", "PBM E-score": 0.0569}, {"sequence": "AAAGCGTA", "PBM E-score": 0.0231}, {"sequence": "GCACGATA", "PBM E-score": 0.0163}, {"sequence": "ACTAAAGC", "PBM E-score": 0.0971}, {"sequence": "GACCCACC", "PBM E-score": -0.0232}, {"sequence": "GATACCCA", "PBM E-score": -0.191}, {"sequence": "AACGCTCC", "PBM E-score": -0.0438}, {"sequence": "CAATCTGG", "PBM E-score": -0.182}, {"sequence": "TAGATCAA", "PBM E-score": 0.0668}, {"sequence": "CACATTAA", "PBM E-score": 0.0442}, {"sequence": "AAAGTGAT", "PBM E-score": 0.176}, {"sequence": "AGCCTGAC", "PBM E-score": -0.215}, {"sequence": "GCATGTAA", "PBM E-score": 0.00356}, {"sequence": "ATCAGGCA", "PBM E-score": 0.0108}, {"sequence": "ACCTCTCT", "PBM E-score": -0.0427}, {"sequence": "GCTACGAA", "PBM E-score": 0.0641}, {"sequence": "ATGATTGG", "PBM E-score": 0.0104}, {"sequence": "AAACAGCC", "PBM E-score": 0.125}, {"sequence": "ACTCATCC", "PBM E-score": 0.108}, {"sequence": "CGCTTGAG", "PBM E-score": -0.0259}, {"sequence": "AAGCGACA", "PBM E-score": -0.0402}, {"sequence": "AAGGTAGT", "PBM E-score": 0.129}, {"sequence": "AACGCAGC", "PBM E-score": -0.0375}, {"sequence": "AGTAACGA", "PBM E-score": 0.0261}, {"sequence": "GACACATA", "PBM E-score": 0.11}, {"sequence": "AGGAACTC", "PBM E-score": -0.137}, {"sequence": "AGATAAAA", "PBM E-score": 0.245}, {"sequence": "AATTTCGT", "PBM E-score": 0.187}, {"sequence": "AGGCCGCA", "PBM E-score": -0.22}, {"sequence": "ATTATATA", "PBM E-score": 0.116}, {"sequence": "CCGACACA", "PBM E-score": -0.0323}, {"sequence": "CACCGTCC", "PBM E-score": -0.117}, {"sequence": "AATCGCCG", "PBM E-score": -0.0024}, {"sequence": "GCCGGTGA", "PBM E-score": -0.0927}, {"sequence": "CGATATCA", "PBM E-score": 0.0159}, {"sequence": "ACTGTTCA", "PBM E-score": -0.129}, {"sequence": "TCGCTAAA", "PBM E-score": 0.0124}, {"sequence": "CACTCACA", "PBM E-score": 0.0133}, {"sequence": "AGGTCCAT", "PBM E-score": -0.0313}, {"sequence": "CACCGATG", "PBM E-score": -0.177}, {"sequence": "CCCGATTA", "PBM E-score": 0.122}, {"sequence": "AGGACTGC", "PBM E-score": -0.285}, {"sequence": "AGACTCAG", "PBM E-score": -0.0523}, {"sequence": "AGATTTTA", "PBM E-score": 0.0447}, {"sequence": "TATTGGGA", "PBM E-score": 0.18}, {"sequence": "GGAGGACC", "PBM E-score": -0.0774}, {"sequence": "AGTAGCCC", "PBM E-score": -0.0526}, {"sequence": "CGCAGTTC", "PBM E-score": -0.0325}, {"sequence": "CCACTAAG", "PBM E-score": 0.0233}, {"sequence": "AGTGGCAT", "PBM E-score": -0.108}, {"sequence": "GCGAAGCA", "PBM E-score": -0.0747}, {"sequence": "GGTACTAC", "PBM E-score": -0.0333}, {"sequence": "CTTCGGGC", "PBM E-score": -0.177}, {"sequence": "CACACCAG", "PBM E-score": 0.0883}, {"sequence": "ACGACGCA", "PBM E-score": -0.0748}, {"sequence": "AATCCCCA", "PBM E-score": 0.0533}, {"sequence": "GGGAAGAC", "PBM E-score": -0.0593}, {"sequence": "TAGCTAAA", "PBM E-score": 0.00267}, {"sequence": "AGGGATGG", "PBM E-score": 0.0232}, {"sequence": "AGTTTTGC", "PBM E-score": 0.156}, {"sequence": "CGGACTAA", "PBM E-score": 0.132}, {"sequence": "CTGCACAG", "PBM E-score": -0.198}, {"sequence": "CAGCCGCA", "PBM E-score": -0.157}, {"sequence": "ATCCTCAA", "PBM E-score": 0.00575}, {"sequence": "GCAATCGA", "PBM E-score": -0.159}, {"sequence": "ACGTCATG", "PBM E-score": -0.075}, {"sequence": "ATTACGCG", "PBM E-score": 0.117}, {"sequence": "CGGGTAAC", "PBM E-score": -0.0548}, {"sequence": "ACCAGCGA", "PBM E-score": -0.0273}, {"sequence": "ACCTTTGA", "PBM E-score": 0.0506}, {"sequence": "ATTGACAG", "PBM E-score": 0.124}, {"sequence": "GAAAGTCC", "PBM E-score": -0.165}, {"sequence": "CACCGGAA", "PBM E-score": 0.217}, {"sequence": "CCATGTGA", "PBM E-score": -0.104}, {"sequence": "AAATTAGA", "PBM E-score": 0.283}, {"sequence": "TCCAATCA", "PBM E-score": -0.0995}, {"sequence": "CTCGTTGA", "PBM E-score": -0.116}, {"sequence": "GTATCCAA", "PBM E-score": -0.0481}, {"sequence": "GAATTCAC", "PBM E-score": 0.0558}, {"sequence": "CTTCTCTC", "PBM E-score": -0.0296}, {"sequence": "CTTAGCTA", "PBM E-score": -0.153}, {"sequence": "ACGCCTCG", "PBM E-score": -0.0327}, {"sequence": "CGCGGATA", "PBM E-score": 0.153}, {"sequence": "GGTAGTCA", "PBM E-score": -0.142}, {"sequence": "ATCACCAG", "PBM E-score": -0.0965}, {"sequence": "ACTGAAAA", "PBM E-score": 0.101}, {"sequence": "ACGTTAGG", "PBM E-score": -0.0933}, {"sequence": "ACGAACGC", "PBM E-score": -0.0254}, {"sequence": "AGCTACGC", "PBM E-score": -0.218}, {"sequence": "TAAAGAAA", "PBM E-score": 0.203}, {"sequence": "CTGACCGC", "PBM E-score": 0.123}, {"sequence": "AAGGATAG", "PBM E-score": 0.056}, {"sequence": "TCATAGGA", "PBM E-score": 0.0455}, {"sequence": "ACATGGGT", "PBM E-score": -0.0722}, {"sequence": "GGAACTCA", "PBM E-score": -0.215}, {"sequence": "TCATGGAA", "PBM E-score": 0.151}, {"sequence": "AGTAGCAC", "PBM E-score": -0.0791}, {"sequence": "ACAAGGGT", "PBM E-score": -0.0412}, {"sequence": "ACTAGTAT", "PBM E-score": 0.149}, {"sequence": "CAGAGGAC", "PBM E-score": -0.159}, {"sequence": "ATAGAACC", "PBM E-score": -0.00797}]}]}
